Laboratory results reported in article PMC4336329 (PLoS ONE, 2015).
Among all 310,000 compounds or so, about 2,200 (0.71%) showed an effect of 50% or more. Effects have a minus sign here. The list shows a part of the results.

Each molecule was assayed against human ether-à-go-go-related gene (hERG) potassium channel (human, UniProt Q12809) (assay: primary screen, population patch clamp on CHO cells stably expressing hERG).
Chain of human ether-à-go-go-related gene (hERG) potassium channel (Q12809 whole entry, looked up): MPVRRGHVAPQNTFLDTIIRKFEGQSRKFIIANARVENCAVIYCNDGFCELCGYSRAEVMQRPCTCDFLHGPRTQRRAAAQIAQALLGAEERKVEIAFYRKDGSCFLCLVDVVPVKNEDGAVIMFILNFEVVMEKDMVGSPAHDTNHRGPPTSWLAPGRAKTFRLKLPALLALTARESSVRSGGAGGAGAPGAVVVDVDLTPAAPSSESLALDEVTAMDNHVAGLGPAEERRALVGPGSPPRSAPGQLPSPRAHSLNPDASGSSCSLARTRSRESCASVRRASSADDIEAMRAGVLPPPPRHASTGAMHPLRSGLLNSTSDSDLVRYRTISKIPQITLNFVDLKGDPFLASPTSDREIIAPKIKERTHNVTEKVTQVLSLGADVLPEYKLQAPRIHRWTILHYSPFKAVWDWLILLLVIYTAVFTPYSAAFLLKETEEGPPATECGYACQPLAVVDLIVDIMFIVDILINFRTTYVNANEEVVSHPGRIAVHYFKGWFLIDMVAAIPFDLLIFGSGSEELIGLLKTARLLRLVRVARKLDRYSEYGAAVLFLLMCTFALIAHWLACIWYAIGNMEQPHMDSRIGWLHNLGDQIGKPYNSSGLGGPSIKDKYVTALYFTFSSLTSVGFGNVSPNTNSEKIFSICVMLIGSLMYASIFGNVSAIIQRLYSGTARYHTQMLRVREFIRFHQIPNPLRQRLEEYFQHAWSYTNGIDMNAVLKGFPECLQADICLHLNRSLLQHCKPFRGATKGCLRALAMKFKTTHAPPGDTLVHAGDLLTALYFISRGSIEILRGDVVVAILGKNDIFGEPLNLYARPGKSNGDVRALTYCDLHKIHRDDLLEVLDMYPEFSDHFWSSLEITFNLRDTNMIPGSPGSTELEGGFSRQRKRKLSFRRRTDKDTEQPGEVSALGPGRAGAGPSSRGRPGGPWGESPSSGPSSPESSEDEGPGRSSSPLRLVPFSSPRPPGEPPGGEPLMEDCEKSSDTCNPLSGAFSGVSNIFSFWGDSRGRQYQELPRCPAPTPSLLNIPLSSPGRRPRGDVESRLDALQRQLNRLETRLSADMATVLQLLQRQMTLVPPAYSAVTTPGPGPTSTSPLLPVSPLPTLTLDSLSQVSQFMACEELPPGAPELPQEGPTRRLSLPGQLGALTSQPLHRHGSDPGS

Row | Structure (SMILES) | hERG current change (%, negative = inhibition) at 1uM [%]
1 | COc1cccc(C2CC(=O)NC3=C2C(=O)CCC3)c1 (stereo not shown) | 14.1
2 | COc1cccc(OCCOCCNCCO)c1 | 9.06
3 | COc1ccccc1CNC(=O)c1cc(C)nc2ccccc12 | 12.2
4 | COc1ccccc1NC(=O)Cn1cnc2c(oc3nc4c(cc32)CCCC4)c1=O | 6.48
5 | COc1ccc(C2=NN(C(=O)CSc3nnc(C)n3C)C(c3ccco3)C2)cc1 (stereo not shown) | 16.9
6 | O=C(NNC(=O)c1cccs1)c1ccccc1 | 5.51
7 | CC(C(=O)Nc1ccccn1)N1C(=O)c2ccccc2S1(=O)=O (stereo not shown) | 6.56
8 | CN(CC(=O)NNC(=O)CCNS(=O)(=O)c1ccccc1)S(=O)(=O)c1ccc(Cl)cc1 | -2.66
9 | Cc1sc(NC(=O)c2ccccc2)c(C#N)c1-c1ccccc1 | 12.6
10 | Cn1c(Cn2nnc(-c3ccccc3)n2)nnc1SCc1ccccc1Cl | 5.26
11 | CCC(=NCCc1c[nH]c2ccccc12)c1c(O)n(C)c(=O)n(C)c1=O | 14
12 | O=C(COC(=O)CCCCCN=C1NS(=O)(=O)c2ccccc21)Nc1ccc(Cl)c(Cl)c1 | 12.1
13 | CSc1ccccc1NC(=S)Nc1cccc(C(F)(F)F)c1 | 12.6
14 | Cc1nc2ccccc2cc1OCc1ccc(F)cc1 | 11.2
15 | O=C(CCCCCN1C(=O)c2ccccc2C1=O)Nc1ccc2c(c1)OCCO2 | 4.28
16 | CC1(C)CC(=O)c2cc(C(=O)O)c(=O)n(-c3ccccc3)c2C1 | 11.8
17 | Cc1ccc(OCCOCCn2cnc3ccccc3c2=O)cc1C | -5.16
18 | OCC1(CCc2ccccc2)CCCN(C/C=C/c2ccccc2)C1 (stereo not shown) | -53.6
19 | Cc1ccc(-n2ncc3c(=O)[nH]cnc32)c(C)c1 | 4.6
20 | O=C(CCCCCn1c(=S)[nH]c2cc3c(cc2c1=O)OCO3)N1CCN(Cc2ccccc2)CC1 | 12.5
21 | Cc1ccc(S(=O)(=O)NNC(=O)c2cnn(-c3ccccc3)c2C(F)(F)F)cc1 | 8.86
22 | Cc1nnc(NC(=O)CSc2nnc(-c3ccc(S(=O)(=O)N4CCCC4)cc3)n2C)s1 | 0.762
23 | NC(=O)COC(=O)c1ccc(C(=O)C(=O)c2ccccc2)cc1 | 12.9
24 | COC(=O)C1=C(C)OC(N)=C(C#N)C1c1cc(C)sc1C (stereo not shown) | 6.96
25 | CCOc1ncccc1C(=O)N1CCN(c2cc(Cl)ccc2C)CC1 | 5.84
